The campaign covered roughly 310,000 compounds. About 14,000 (4.5%) showed an effect of 50% or more. The effect is printed as a negative number. The list shows a part of the results.
These molecules were tested against human ether-à-go-go-related gene (hERG) potassium channel (human, UniProt Q12809) (assay: primary screen, population patch clamp on CHO cells stably expressing hERG).
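Also: peak tail current of the secondary pulse compared with the same well before compound.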

Chain of human ether-à-go-go-related gene (hERG) potassium channel (Q12809 whole entry, looked up): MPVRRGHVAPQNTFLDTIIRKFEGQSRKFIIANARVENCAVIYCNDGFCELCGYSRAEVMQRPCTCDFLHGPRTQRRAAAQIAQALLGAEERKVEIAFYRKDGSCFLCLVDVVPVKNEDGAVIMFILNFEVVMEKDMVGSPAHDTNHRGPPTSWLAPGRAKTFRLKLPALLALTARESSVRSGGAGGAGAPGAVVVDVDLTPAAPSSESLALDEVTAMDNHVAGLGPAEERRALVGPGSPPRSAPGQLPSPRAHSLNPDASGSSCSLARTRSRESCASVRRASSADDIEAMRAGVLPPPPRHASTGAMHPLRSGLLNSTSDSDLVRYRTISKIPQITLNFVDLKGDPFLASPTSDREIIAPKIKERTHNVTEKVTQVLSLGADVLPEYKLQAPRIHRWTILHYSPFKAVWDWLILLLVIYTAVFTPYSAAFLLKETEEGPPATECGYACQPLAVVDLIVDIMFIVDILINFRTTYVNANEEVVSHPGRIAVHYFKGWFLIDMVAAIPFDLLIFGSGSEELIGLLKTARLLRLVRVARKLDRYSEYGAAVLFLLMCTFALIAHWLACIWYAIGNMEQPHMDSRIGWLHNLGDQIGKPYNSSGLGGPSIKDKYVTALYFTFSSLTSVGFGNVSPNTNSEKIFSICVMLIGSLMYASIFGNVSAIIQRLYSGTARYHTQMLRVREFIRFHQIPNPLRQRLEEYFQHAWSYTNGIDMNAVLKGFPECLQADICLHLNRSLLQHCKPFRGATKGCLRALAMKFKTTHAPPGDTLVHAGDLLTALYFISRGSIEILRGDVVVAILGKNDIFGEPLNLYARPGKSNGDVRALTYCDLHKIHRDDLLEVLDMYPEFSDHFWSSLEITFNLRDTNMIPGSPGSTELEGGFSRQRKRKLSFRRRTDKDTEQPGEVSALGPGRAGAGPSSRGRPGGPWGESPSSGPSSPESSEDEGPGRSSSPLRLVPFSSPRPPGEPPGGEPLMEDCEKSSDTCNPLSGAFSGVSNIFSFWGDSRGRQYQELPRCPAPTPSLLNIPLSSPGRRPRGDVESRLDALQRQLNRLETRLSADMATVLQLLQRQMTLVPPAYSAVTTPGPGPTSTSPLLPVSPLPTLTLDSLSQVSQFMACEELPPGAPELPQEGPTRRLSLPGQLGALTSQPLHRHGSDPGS

First: Cc1cccc(C(=O)OC(C)C(=O)NC2CCCc3ccccc32)c1O (centres unmarked)
Second: CC(=O)N1CCc2cc(S(=O)(=O)CCC(=O)Nc3ccccc3F)ccc21
The “hERG current change (%, negative = inhibition) at 10uM” value of the first is lower: -6.58% for the first, 13.3% for the second.

Going from `COc1ccc(C(CNC(=O)c2ccc(C)c(S(=O)(=O)Nc3ccccc3OC)c2)N2CCCC2)cc1` (centres unmarked) to `Cc1ccc(C(=O)NCc2ccncc2)cc1S(=O)(=O)N1CCCCC1`, the “hERG current change (%, negative = inhibition) at 10uM” value rises from -66.2% to -30.5%.

Compared with `CC1=NN(c2ccccc2)C(=O)C1N=Nc1ccccc1` (centres unmarked), `O=C1C=CC(=O)N1N(c1ccccc1)c1ccccc1` is lower in “hERG current change (%, negative = inhibition) at 10uM” value: 18.2% for the first, -9.09% for the second.

Compared with `O=C(NCc1cccnc1)C(=O)NCC1OCCN1S(=O)(=O)c1ccccc1` (centres unmarked), `NS(=O)(=O)c1ccc(NC(=S)NCc2ccccc2)cc1` is higher in “hERG current change (%, negative = inhibition) at 10uM” value: 0.407% for the first, 21% for the second.

Compared with `CC(C)N(C(=O)COC(=O)c1ccc(Cl)nc1)C(C)C`, `CCOC(=O)C(O)(CC(=O)c1ccc(OC)cc1)C(F)(F)F` (centres unmarked) is higher in “hERG current change (%, negative = inhibition) at 10uM” value: 3.64% for the first, 4.98% for the second.

First: Cc1ccc(-c2csc(NC(=O)CSc3nnc4c(n3)[nH]c3ccccc34)n2)cc1
Second: COc1ccccc1CNC(=O)CSc1ccc(-c2cccs2)nn1
The “hERG current change (%, negative = inhibition) at 10uM” value of the first is higher: 18.6% for the first, -17.1% for the second.

First: C1CC1Cc1noc(CN2CCN(CC3CC3)CC2)n1
Second: NC(=O)C1(N2CCCCC2)CCN(Cc2ccccc2)CC1
The “hERG current change (%, negative = inhibition) at 10uM” value of the first is lower: -8.98% for the first, 2.53% for the second.

Going from `CCOc1ccc(S(=O)(=O)N2CCN(S(=O)(=O)c3ccc(OCC)cc3)C(C)C2)cc1` (centres unmarked) to `COc1ccc(N2C(=O)CSC2c2ccc(F)cc2)cc1` (centres unmarked), the “hERG current change (%, negative = inhibition) at 10uM” value rises from -21.2% to 0.924%.

Compared with `CCn1c(CN(C)c2ccccc2)nc2ccccc21`, `O=S(=O)(NCCc1ccccc1)c1cccc2cccnc12` is lower in “hERG current change (%, negative = inhibition) at 10uM” value: -2.96% for the first, -17.4% for the second.

Compared with `CN1C(=O)N(C)C(=O)C2(Cc3cc([N+](=O)[O-])ccc3N(C)C2)C1=O`, `CC(C)CC1(C)NC(=O)N(CC(=O)Nc2cccc(S(=O)(=O)N(C)c3ccccc3)c2)C1=O` (centres unmarked) is lower in “hERG current change (%, negative = inhibition) at 10uM” value: 2.72% for the first, -5.27% for the second.

Going from `CCN(CC(=O)Nc1ccc(NC(C)=O)cc1)C(=O)/C=C/c1cn(Cc2ccccc2)nc1-c1cccnc1` to `COc1ccccc1C(=O)N/C(=C/c1ccccc1)C(=O)Nc1ccc(C(=O)O)cc1`, the “hERG current change (%, negative = inhibition) at 10uM” value rises from -8.04% to 21.8%.

Going from `COc1cc(OC)c2c(OC)cccc2n1` to `COc1cc(OC)c(OC)cc1/C=N/Nc1ccc(Cl)nn1`, the “hERG current change (%, negative = inhibition) at 10uM” value rises from -9.52% to 15.3%.

Going from `N#C/C(=C(/O)CCCl)c1ccccn1` to `O=C(O)C(=O)O.OC(Cn1cnnc1)c1ccccc1` (centres unmarked), the “hERG current change (%, negative = inhibition) at 10uM” value falls from 29.8% to 10.2%.

Compared with `COc1ccc(CNC(=O)CN(Cc2cccs2)C(=O)CCC(=O)Nc2ccccn2)cc1`, `COC(=O)Nc1ccc(SCC(=O)c2ccccc2)cc1` is higher in “hERG current change (%, negative = inhibition) at 10uM” value: -41.1% for the first, 13.3% for the second.

Compared with `COc1ccc(C(=O)Nc2nnc(S(=O)(=O)N3CCC(C)CC3)s2)cc1OC`, `CS(=O)(=O)N1CCC(C(=O)Nc2ccc(C(N)=O)cc2)CC1` is higher in “hERG current change (%, negative = inhibition) at 10uM” value: 4.93% for the first, 13.2% for the second.

Compared with `O=C(COC(=O)c1ccc(N2CCOCC2)c([N+](=O)[O-])c1)Nc1ccc2c(c1)OCO2`, `COCCNC(=O)C(=O)NCC(c1ccc2c(c1)OCO2)N1CCN(c2ccc(F)cc2)CC1` (centres unmarked) is lower in “hERG current change (%, negative = inhibition) at 10uM” value: 4.1% for the first, -34.6% for the second.

Compared with `O=C1CCc2ccc(NS(=O)(=O)c3ccc(F)cc3)cc2N1`, `COc1ccccc1-c1cc(N)n(S(=O)(=O)c2ccc(F)c(C)c2)n1` is lower in “hERG current change (%, negative = inhibition) at 10uM” value: 5.58% for the first, 3.04% for the second.

First: COCCN(C(=S)Nc1cc(C)ccc1C)C(C)c1cccnc1 (centres unmarked)
Second: Cc1cc(C)cc(C(=O)Nc2cccnc2)c1
The “hERG current change (%, negative = inhibition) at 10uM” value of the first is lower: -25.4% for the first, 10.1% for the second.

Compared with `OCC1OC(n2cnc3c(NC4CCCC4)ncnc32)C(O)C1O` (centres unmarked), `S=C(Nc1ccc(Cl)cc1)NC1CCCCC1` is higher in “hERG current change (%, negative = inhibition) at 10uM” value: 3.62% for the first, 5.84% for the second.

Compared with `O=C(N=C1SC2CS(=O)(=O)CC2N1c1cccc(Cl)c1Cl)C1CCCO1` (centres unmarked), `Cc1cccc(CN2CCCC(C(=O)Nc3ccc(-c4cscn4)cc3)C2)c1` (centres unmarked) is lower in “hERG current change (%, negative = inhibition) at 10uM” value: 4.19% for the first, -31.5% for the second.

Going from `COc1cc(C)c(S(=O)(=O)Nc2ccccc2F)cc1C` to `Cc1c(N=Cc2ccc[nH]2)c(=O)n(-c2ccccc2)n1C`, the “hERG current change (%, negative = inhibition) at 10uM” value rises from 6.11% to 13.6%.

First: CC(=O)Nc1ccc(N2C(=O)CC(Sc3nccc(C)n3)C2=O)cc1 (centres unmarked)
Second: CC(C)CNC(=O)c1cccc(NC(=O)c2ccc(Cl)c([N+](=O)[O-])c2)c1
The “hERG current change (%, negative = inhibition) at 10uM” value of the first is higher: 12.3% for the first, -49.9% for the second.

Going from `CC1=NN(C(=O)Cn2nc([N+](=O)[O-])c(Br)c2C)C(O)(C(F)(F)F)C1` (centres unmarked) to `CNS(=O)(=O)c1cnccc1N1CCN(c2cccc(C(F)(F)F)c2)CC1`, the “hERG current change (%, negative = inhibition) at 10uM” value falls from -2.33% to -14%.

Compared with `Cc1cccc(C(=O)O/N=C(\c2ccccc2)c2cccnc2)c1`, `Cc1sc(NC(=O)COc2ccccc2)c(C#N)c1-c1ccccc1` is higher in “hERG current change (%, negative = inhibition) at 10uM” value: -39.9% for the first, 2.55% for the second.

Compared with `CC1=NN(C(N)=S)C(=O)C1N=Nc1c(Br)cc(Br)cc1Br` (centres unmarked), `CCCc1c(C(=O)N/N=C/c2ccccc2C(F)(F)F)nnn1-c1nonc1N` is higher in “hERG current change (%, negative = inhibition) at 10uM” value: -8.08% for the first, 11.8% for the second.

Compared with `CCO[C@@H]1OC(C(=O)N2CCOCC2)=C[C@H](c2ccccc2)[C@H]1CCCO`, `CCN(CC)C(=O)c1ccc(COc2ccccc2Cl)o1` is lower in “hERG current change (%, negative = inhibition) at 10uM” value: 20.2% for the first, -18.1% for the second.

Compared with `COc1ccc(/C=N/N=C/c2ccc(OC)c(OC)c2)cc1OC`, `N#Cc1ccc(/C=C/C(=O)c2ccc3c(c2)OCO3)cc1` is lower in “hERG current change (%, negative = inhibition) at 10uM” value: 11.7% for the first, 2.93% for the second.

Going from `NS(=O)(=O)c1ccc(CCNC(=O)CSc2nc3ccccc3c(=O)n2CCC(=O)N2CCCCC2)cc1` to `Cc1ccc(N(C(=O)CC2NC(=O)NC2=O)C2(C(=O)NC3CCCC3)CCCCC2)cc1` (centres unmarked), the “hERG current change (%, negative = inhibition) at 10uM” value falls from 19.8% to 8.11%.

Source: article PMC4336329 (PLoS ONE, 2015)
